Laboratory results taken from the RNAGym collection of RNA variant scans (doi:10.1093/nar/gkz1192).
The source gives no read counts; variants with many changes may rest on few reads.

B1: CPEB3 Ribozyme (parent)
chain: UAACAGGGGGCCACAGCAGAAGCGUUCACGUCGCAGCCCCUGUCAGAUUCUGGUGAAUCUGCGAAUUCUGCUGUAUAUCUC

Variants of: B1
Assay: self-cleavage, relative activity (ratio to wild type); higher = more cleavage; in vitro, sequencing
Outline: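 Relative activity was defined as the cleaved/total read fraction for a variant divided by the same fraction for the unmutated ribozyme. CPEB3 self-cleaving ribozyme libraries were made by rounds of error-prone PCR, barcoded, and transcribed in vitro with T7 RNA polymerase for 5 hours at 37°C, and cleavage ran through transcription plus a 15 min DNase I step before EDTA. Illumina sequencing of template-switched reverse transcripts gave the reads, and DNA sequencing mapped the barcodes. Averages come from three batches, using variants with at least 5 reads.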
With A21U U26C U31C U60A U69A A75G the self-cleavage was 0.3. In the case of A21U U26C U72A U76C, the self-cleavage is reported as 0.09. In the case of A21U U26C U74C, the self-cleavage is reported as 0.17. In the case of A21U U26C U80C, the self-cleavage is reported as 0.04. A21U U26G U41C U78C gave a self-cleavage of 0.07. Variant A21U U31A A35G U43C U49A has a self-cleavage of 0.05. For A21U U31A A47G U54C C68A, the self-cleavage was 0.11. A21U U31C A45G U54C G63A showed a self-cleavage of 0.1. In the case of A21U U31C U66C, the self-cleavage is reported as 0.15. With A21U U41A A57G U69C U80G the self-cleavage was 0.13. In the case of A21U U41A U43C U72C, the self-cleavage is reported as 0.22. Work on A21U U41A U74C yielded a self-cleavage of 0.24. With A21U U41A U78C the self-cleavage was 0.16. In the case of A21U U41C A45G U58G A65G U72C, the self-cleavage is reported as 0.05. A21U U41C A57C showed a self-cleavage of 0.09. A21U U41C A57U U58A U72C C81G gave a self-cleavage of 0.05. Variant A21U U41C U60C U72A has a self-cleavage of 0.13. With A21U U43A G73U the self-cleavage was 0.99. A21U U43A U54A C68A gave a self-cleavage of 0.23. Work on A21U U43C A57G U78C yielded a self-cleavage of 0.12. In the case of A21U U43C G46A G52U C62A U80A C81U, the self-cleavage is reported as 0.03. A21U U43C U69C U72C gave a self-cleavage of 0.16. In the case of A21U U43C U78C, the self-cleavage is reported as 0.2. For A21U U43G A47G U67C U74G, the self-cleavage was 0.03. Variant A21U U51C A64U U69C has a self-cleavage of 0.08. Work on A21U U51C A65G yielded a self-cleavage of 0.1. In the case of A21U U54C A65G U66C, the self-cleavage is reported as 0.14. A21U U54C U78C showed a self-cleavage of 0.33. With A21U U60A A65G U67C U80C the self-cleavage was 0.1. Work on A21U U66C U69A yielded a self-cleavage of 0.15. In the case of A21U U67C C71G, the self-cleavage is reported as 0.07. For A21U U69A U72C, the self-cleavage was 0.41. Work on G22A A35G A45G U49C U74A yielded a self-cleavage of 0.06. In the case of G22A A45G U67C U69A, the self-cleavage is reported as 0.17. Variant G22A A47G U51A U60C U72C U76C has a self-cleavage of 0.08. With G22A A56G A64G the self-cleavage was 0.3. Work on G22A A56U U60C G61A yielded a self-cleavage of 0.06. G22A A56U U66A showed a self-cleavage of 0.1. For G22A A64G U67C U69A U80A, the self-cleavage was 0.04. In the case of G22A A65G U67C, the self-cleavage is reported as 0.22. For G22A C29A C32G G70A A77U, the self-cleavage was 0.03. G22A C32U C40A A65G showed a self-cleavage of 0.28. Work on G22A C38A G42A U51C yielded a self-cleavage of 0.08. G22A C50U U60A G73A showed a self-cleavage of 0.12. In the case of G22A C59G A75C, the self-cleavage is reported as 0.13. G22A G33A U74A gave a self-cleavage of 0.09. In the case of G22A U25C A28U G30A U41C C44U, the self-cleavage is reported as 0.23. Variant G22A U25C U26C U60C has a self-cleavage of 0.36. With G22A U25C U67C the self-cleavage was 0.37. G22A U26A A56G U69A gave a self-cleavage of 0.16. Variant G22A U26A A56U has a self-cleavage of 0.25. For G22A U26A C32A U41G U60A A65G, the self-cleavage was 0.13. In the case of G22A U26A G55C A56U G63U U80C, the self-cleavage is reported as 0.13. With G22A U26C A57G U80C the self-cleavage was 0.08. For G22A U26C U31A U54C, the self-cleavage was 0.22. G22A U26C U41C showed a self-cleavage of 0.32. For G22A U26C U41C U43A U49C U60G, the self-cleavage was 0.15. In the case of G22A U26C U43C A45G, the self-cleavage is reported as 0.15. G22A U31C A45G U51A gave a self-cleavage of 0.18. With G22A U31C U41G U60C the self-cleavage was 0.1. G22A U41A A57C gave a self-cleavage of 0.08. With G22A U41C U43A U54A U69C the self-cleavage was 0.17. Variant G22A U41C U51C U78A has a self-cleavage of 0.09. For G22A U41G A47G U54C, the self-cleavage was 0.12. For G22A U43A U78A U80C, the self-cleavage was 0.26. In the case of G22A U48C U69A, the self-cleavage is reported as 0.32. G22A U54A A56U U67A showed a self-cleavage of 0.16. Work on G22A U54C U72C A77U yielded a self-cleavage of 0.11. In the case of G22A U58C A65U A75G, the self-cleavage is reported as 0.07. Work on G22A U58C U76C yielded a self-cleavage of 0.13. Work on G22C A28G A35U A47U U48C U69C U72C yielded a self-cleavage of 0.05. In the case of G22C A35U C37G A45G A77U, the self-cleavage is reported as 0.03. In the case of G22C A45G U78C, the self-cleavage is reported as 0.19. Variant G22C A47U U69A has a self-cleavage of 0.16. For G22C A56U A65G, the self-cleavage was 0.14. Work on G22C G30A A64G U69C A75G C81A yielded a self-cleavage of 0.08. In the case of G22C U25C A75G, the self-cleavage is reported as 0.07. For G22C U26C A28U C34G, the self-cleavage was 0.29. G22C U41A U60C U72C gave a self-cleavage of 0.13. Variant G22C U41C U76A has a self-cleavage of 0.09. For G22C U43A U48C, the self-cleavage was 0.17. In the case of G22C U43A U60C, the self-cleavage is reported as 0.13. In the case of G22C U49C A64U U66C, the self-cleavage is reported as 0.15.
